# Test results reported in PubChem BioAssay AID720523 (National Center for Advancing Translational Sciences (NCATS), 2013).
# Where “and” joins values, the source holds several entries; their conditions need not be identical. Identical values can stand only once. About 25 (2%) of roughly 1,400 compounds were called active. This list was built around the results that the source calls inconclusive (neither active nor inactive); the mix of calls is not that of the screen. Calls follow the shape of the dose curve; as a rule, active = well fitted inhibition curve with a large enough effect; inconclusive = small, poorly fitted or top-dose-only effect; inactive = flat fitted curve, though single readings scatter. Where the call is inconclusive, the potency comes from a doubtful curve fit.
# Experiment: Nrf2 qHTS screen for inhibitors: A549 ARE-Fluc Cytotoxicity Counterscreen for Hit Validation
# Conditions: A549 ARE-Fluc cells; series mostly up to 46.1 µM; activity change, negative = cytotoxicity: at the top concentration
# Text: Nrf2 is a transcription factor that maintains cellular redox homoestasis and protects cells from xenobiotics. Nrf2 binds to the antioxidant response element (ARE) to induce gene expression of a broad spectrum of genes that encode for antioxidants. […] Finding a small molecule that act as an inhibitor of Nrf2 function would represent a novel therapeutic target that could lead to improvement in survival of patients undergoing chemo- and/or radio- therapy.
# In collaboration with the Biswal laboratory, a cell based, luminescence assay (BugLite) was developed to detect the Nrf2 activity using the A549 ARE_Fluc cells (AID 504648). This assay was coupled with a fluorescence based (CellTiter Fluor) cytotoxicity assay to identify and exclude toxic compounds. This coupled assay was used to evaluate selected compounds for hit validation. The data herein is the result of the CellTiter Fluor assay where decrease in fluorescence signal = cytotoxicity. Inactivity is the desired outcome for this assay.
# NIH Chemical Genomics Center [NCGC]
# NIH Molecular Libraries Probe Centers Network [MLPCN]
# Assay Submitter (PI): Shyam Biswal, Johns Hopkins University
# [1] Shibata T., et al., Genetic alteration of Keap1 confers constitutive Nrf2 activation and resistance to chemotherapy in gallbladder cancer. Gastroenterology, 2008.
# [2] Sjoblom T., et al., The consensus coding sequences of human breast and colorectal cancers. Science, 2006.
# Five uL of cell suspension was dispensed into 1536-well white TC-treated plate using the Kalypsys dispenser to achieve a density of 5000 cells/well in all columns except column 1. The plates were incubated at 37deg C at 5% CO2 for 2 hours before 23 nL of compounds were added with the Kalypsys pin tool equipped with a 1,536-pin array. The control compounds Budesonide and Staurosporine were added at a concentration of 2mM. Budesonide was also added as a 1:10 titration, starting at 200uM, to achieve the dose-response control signal. The plates were incubated for 18-24 hour at 37deg C, 5% CO2 followed by a 5ul addition of 5% FBS OPTI-MEM growing media in column 1 as negative control. One microliter of 5x CellTiter Fluor (Promega) was added to each well and the assay plates were incubated at 37deg C, 5% CO2 for 30 minutes. The fluorescence signal was read using the PerkinElmer ViewLux plate reader (Ex = 405 nm /Em = 525 nm) for a 3 second exposure. After the signal was taken, 3 uL of 3x BugLite was dispensed into all wells. The plates were then incubated at room temperature for 15 minutes. A second ViewLux read (40 sec exposure) was performed to detect the luminescence signal. Cytotoxicity was assessed through the first fluorescent read while biochemical activity against Nrf2 was measured in the luminescent read. The data was normalized to the positive and negative controls.
# % is scaled to controls: 0 for no effect and ±100 for the full control effect; potency is read from the fitted curve at half-maximal effect; tags tell the direction and shape of the fitted curve.
Structure (SMILES),Potency,"activity change, negative = cytotoxicity"
CN(C)c1ccc(/C=C/c2ccc3c4ccccc4ccc3[n+]2-c2ccccc2)cc1,active: 7.31 µM,–
Cc1ccc2c(c1)[nH]c1c(N3CCN(Cc4ccccc4)CC3)ncnc12,"inconclusive: 29.1 µM [inhibitor, single point]",–
CN(c1cccc(NC(=O)CN(c2ccc(C34CC5CC(CC(C5)C3)C4)cc2)S(C)(=O)=O)c1)S(C)(=O)=O,"inconclusive: 29.1 µM [inhibitor, single point]",–
COc1ccccc1-[n+]1c(C)cc(/C=C2\Sc3ccccc3N2C)cc1C,"inconclusive: 4.11 µM [inhibitor, full curve]",–
CC(C)(C)c1cc(C(=O)Nc2cccnc2)cc(C(=O)Nc2cccnc2)c1,–,inactive: -5.47%
COc1cc2sc3ccc(C#Cc4ccc(N)cc4)cc3c(=O)c2cc1OC,"inconclusive: 4.11 µM [inhibitor, full curve, poor fit]",–
CCN1/C(=C/c2cc[n+](C)cc2)C=Cc2cc(C)ccc21,active: 10.3 µM,–
N=c1ccn(Cc2ccc(F)cc2)cc1,active: 20.6 µM,–
COc1ccc(OC)c(CCNC(=O)C(C)n2nc(C)c3c(C)n(-c4ccc(C)cc4)nc3c2=O)c1 (stereo not given),"inconclusive: 29.1 µM [inhibitor, single point]",–
CN(C)S(=O)(=O)N1CCC(Oc2cccc(C(=O)NC3CCCCCC3)c2)CC1,"inconclusive: 0.0326 µM [inhibitor, full curve]",–
Cn1c(=O)n(-c2ccc(C(C)(C)C#N)cc2)c2c3cc(-c4cnc5ccccc5c4)ccc3ncc21,"inconclusive: 0.366 µM [inhibitor, full curve]",–
COc1cccc(CN(C)C(=O)c2cccc(S(=O)(=O)N3CCN(c4ccccc4)CC3)c2)c1OC,"inconclusive: 7.31 µM [inhibitor, partial curve]",–
Cc1ccc(CCNc2ncnc(Cl)c2N)cc1,–,inactive: -3.2%
CC1(C)O[C@@H]2C[C@H]3[C@@H]4CCC5=CC(=O)CC[C@]5(C)[C@@]4(F)[C@@H](O)C[C@]3(C)[C@]2(C(=O)CCl)O1,–,inactive: -10.6%
CCCN(CCC)C1=CC(=[N+]2CCCC2)CC(C)(C)C1,–,inactive: -9.83%
CC1(c2ccc3ccccc3c2)NC(=O)N(CC(=O)N2CCN(Cc3ccccc3)CC2)C1=O (stereo not given),–,inactive: -5.38%
CC1(C)COCN1S(=O)(=O)c1ccc(C(=O)Nc2nnc(-c3ccc(Cl)s3)o2)cc1,"inconclusive: 16.4 µM [inhibitor, partial curve]",–
CC1CCC(C(C)C)C(OC(=O)Cn2c(-c3ccc(F)cc3)[n+](C)c3ccccc32)C1 (stereo not given),"inconclusive: 20.6 µM [inhibitor, single point]",–
CC(C)CCCCCCCCCCCCC(=O)NCC(=O)NC1C(O)C(O)C(Nc2ncnc3nc[nH]c23)OC1C(O)CO (stereo not given),"inconclusive: 0.0116 µM [inhibitor, full curve]",–
CCN1/C(=C\c2ccc3cc(C)ccc3[n+]2CC)Sc2cc(C)c(C)cc21,"inconclusive: 20.6 µM [inhibitor, partial curve]",–

Structure (SMILES),Potency,"activity change, negative = cytotoxicity"
COc1ccc(-n2cc(-c3ccc(C)cc3)[n+]3c2SCC3)cc1,–,inactive: -7.32%
O=[N+]([O-])c1ccc2ncnc(N3CCN(Cc4ccc5c(c4)OCO5)CC3)c2c1,–,inactive: -10.6%
Cc1cc(/C=C\c2ccc3cc(N(C)C)ccc3[n+]2C)c(C)n1-c1ccccc1,active: 7.31 µM,–
Fc1ccc(/C=C/c2ccc3ccccc3n2)cc1,"inconclusive: 18.4 µM [inhibitor, partial curve]",–
COc1cc2c(NC3CCN(C(C)C)CC3)nc(N3CCCN(C)CC3)nc2cc1OCCCN1CCCC1,"inconclusive: 2.59 µM [inhibitor, partial curve]",–
CCC(C)N1CCC2(CC1)N=c1c(c3c4c5c(C)c(O)c3c(O)c1=NC(=O)C(C)=CC=C[C@H](C)[C@H](O)[C@@H](C)[C@@H](O)[C@@H](C)[C@H](OC(C)=O)[C@H](C)[C@@H](OC)C=CO[C@@](C)(O5)C4=O)N2 (stereo not given in full),"inconclusive: 18.4 µM [inhibitor, single point]",–
O=C(Nc1ccc(-c2csc(Nc3ccccc3)n2)cc1)c1cccc(C(F)(F)F)c1,–,inactive: -25.2%
COc1cc(OC)c(/C=C/c2ccc3ccccc3[n+]2C)c(OC)c1,"inconclusive: 8.2 µM [inhibitor, partial curve]",–
CC(=NNC(=S)N1CCC1)c1ccccn1,"inconclusive: 0.731 µM [inhibitor, full curve, poor fit]",–
O=C(Nc1nnc(-c2ccccc2Cl)o1)c1ccc(S(=O)(=O)N2CCCCCC2)cc1,"inconclusive: 11.6 µM [inhibitor, partial curve]",–
CCC(C)(C)c1ccc(OCCCC[n+]2cccc(C)c2)c(C(C)(C)CC)c1,"inconclusive: 20.6 µM [inhibitor, single point]",–
COc1ccc(CCN(C)C(=O)c2cccc(S(=O)(=O)N3CCN(c4ccc(F)cc4)CC3)c2)cc1OC,–,inactive: -9.22%
CSC(=S)NN=C(C)c1cccc(C)n1,–,inactive: -25.6%
CC1CCC(C(C)C)C(OC(=O)Cn2c(-c3ccccc3)[n+](C)c3ccccc32)C1 (stereo not given),"inconclusive: 11.6 µM [inhibitor, partial curve] and inconclusive: 7.31 µM [inhibitor, partial curve]",–
CSC1SCC2C(=O)N(C)C(C(C)C)C(=O)OCC(NC(=O)c3cnc4ccccc4n3)C(=O)NC(C)C(=O)N(C)C1C(=O)N(C)C(C(C)C)C(=O)OCC(NC(=O)c1cnc3ccccc3n1)C(=O)NC(C)C(=O)N2C (stereo not given),active: 10.3 µM,–
Cc1ccc(-n2c(-c3ccc(Br)cc3)c[n+]3c2CCc2ccc4cccnc4c2-3)cc1,"inconclusive: 18.4 µM [inhibitor, partial curve]",–
c1ccc(CC2CCN(c3ncnc4sccc34)CC2)cc1,–,inactive: -2.83%
CC1CCCC=CC2CC(OC(=O)CN(C)C)CC2C(O)C=CC(=O)O1 (stereo not given),"inconclusive: 0.231 µM [inhibitor, full curve]",–
CC(C)(C)n1ncc2c(=O)n(Cc3ccc(C(=O)c4ccccc4)cc3)cnc21,–,inactive: -5.96%
O=C(CSc1c2c(nc3ccc(Cl)cc13)CCCC2)N1CCN(c2cccc(Cl)c2)CC1,"inconclusive: 23.1 µM [inhibitor, single point]",–
